Assay results: PubChem BioAssay AID1508642 (National Center for Advancing Translational Sciences (NCATS), 2021)
Out of some 43,000 compounds screened, about 200 (0.47%) were called active. About 12% were inconclusive and are not listed. The call rests on the fitted dose curve; in most records, active means well fitted cell-killing curve with a large enough effect; inconclusive means small, poorly fitted or top-dose-only effect, or effect the other way; inactive means flat fitted curve, though single readings scatter. This is one part of the list.

Assay: Cell viability qHTS assay in S16 Pmp22-F2sN cells; further: nearly all actives have a fitted effect of over 65% in size
Details: S16 Pmp22-F2sN Schwann cells (luciferase reporters placed in the Pmp22 gene) viability, CellTiter-Glo, 24 h; series mostly up to 57.5 µM; activity change, negative = cytotoxicity: at the top concentration
How it was run: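 S16 Schwann cells carrying the Pmp22-F2sN reporter, seeded in 1536-well format, were exposed to library compounds for 24 h at 37C. Viability was read as CellTiter-Glo luminescence after 15 min at room temperature.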
On the % scale 0 is the no-effect control and ±100 the full control effect.

SMILES | activity change, negative = cytotoxicity
COc1ccccc1NC(=O)c1ncn(-c2ccccc2)n1 | inactive: -6.92%
Cc1ccccc1NC(=O)c1c(NC(=O)c2ccccc2F)sc2c1CCC(C)C2 (stereo not given) | inactive: -3.46%
COc1ccc(Cn2ccc3nc(C)c(C(=O)N4CCN(c5ccc(F)cc5)CC4)cc3c2=O)cc1 | inactive: -0.226%
Cc1c(C(=O)OC2CCC(C)CC2)[nH]c2c1C(=O)CC(c1ccc(F)cc1)C2 (stereo not given) | inactive: -4.57%
Cc1ccc(C(=O)CSc2nc3cc(C(=O)NC4CCCC4)ccc3c(=O)n2CC2CCCO2)c(C)c1 (stereo not given) | inactive: -16.6%
CC(C)CCNc1nc2c(-c3ccccc3)nnn2c2ccccc12 | inactive: 10.6%
COC(=O)c1ccccc1NC(=O)CSc1n[nH]c(CC(C)C)n1 | inactive: -11.9%
CCOc1ccc(CNC(=O)c2ccc(CSc3nc4ccncc4n3Cc3ccc(F)cc3)cc2)cc1 | inactive: -9%
COc1cccc(-c2cc(C(=O)Nc3cnn(Cc4ccc(Cl)cc4Cl)c3)no2)c1 | inactive: -0.0899%
O=C(CC1N=C2c3ccccc3N=C(SCc3cccc(F)c3)N2C1=O)NCc1cccs1 (stereo not given) | inactive: -1.5%
COc1cccc(NC(=O)c2oc3ccccc3c2NC(=O)c2ccccc2C)c1 | inactive: -20.6%
O=C(Cn1ncc2c3ccccc3n(Cc3ccccc3)c2c1=O)NCc1ccccn1 | inactive: 26.4%
COc1ccc(Nc2ncc3c(n2)CCN(Cc2sccc2C)C3)c(OC)c1 | inactive: 9.87%
COc1ccc2c(CNCCc3ccco3)c(C(=O)O)n(Cc3ccc(C)cc3)c2c1 | inactive: 11.7%
COc1ccc(C(CNC(=O)c2oc3cc(Br)ccc3c2C)N2CCCCC2)cc1 (stereo not given) | inactive: 28%
O=[N+]([O-])c1ccc(S(=O)(=O)N2CCn3cccc3C2c2ccc(Br)cc2)cc1 (stereo not given) | inactive: -9.15%
COc1ccc(NC(=O)CC2C(=O)N(c3ccccc3)C(=O)N2CCc2sccc2C)cc1 (stereo not given) | inactive: -1.92%
Cc1cccc(NC(=O)CCCn2nc(C)c3c(C)n(-c4ccccc4)nc3c2=O)c1C | inactive: 0.623%
Cc1ccc(S(=O)(=O)N(CC(=O)Nc2cccnc2)c2cc(Cl)ccc2C)cc1 | inactive: -7.22%
CCOC(=O)CN1C(=O)N(c2ccc(C)c(C)c2)S(=O)(=O)c2ccccc21 | inactive: 6.56%
CCN(CC)S(=O)(=O)c1cc(-c2ccc(=O)n(C(C)C(=O)Nc3cccc(C#N)c3)n2)ccc1C (stereo not given) | inactive: -17.9%
CCc1ccc(NC(=O)CSc2nnc(CC)c(CC)n2)cc1 | inactive: -1.95%
Cc1ccc(Cn2c(CN3CCC(C(=O)O)CC3)cc3ccccc32)cc1 | inactive: 12.3%
CCN(CC)CCCNC(=O)c1sc2nc3n(c(=O)c2c1C)CCCCC3 | inactive: 2.52%

SMILES | activity change, negative = cytotoxicity
COc1ccc(-c2noc(CSc3nnc(Cc4ccccc4)n3-c3ccc(F)cc3)n2)cc1 | inactive: -18.1%
CN(CC(=O)Nc1ccc(F)cc1F)S(=O)(=O)c1cccc2nsnc12 | inactive: -6.14%
CCOC(=O)C1CCN(C(=O)c2cnn(-c3ccc(F)cc3)c2-n2cccc2)CC1 | inactive: 2.24%
CCOC(=O)c1[nH]c2c(c1Cc1ccccc1)C(=O)CC(c1ccc(C(C)(C)C)cc1)C2 (stereo not given) | inactive: -13.6%
COc1ccc2oc(-c3cccc(NC(=O)c4cc([N+](=O)[O-])ccc4N4CCOCC4)c3)nc2c1 | inactive: 6.23%
CCOC(=O)C(C)Sc1nnc2cc(C)c3ccccc3n12 (stereo not given) | inactive: 8.04%
COc1cc(C2c3c(-c4c(C)cc(C)cc4O)n[nH]c3C(=O)N2Cc2ccco2)cc(OC)c1OC (stereo not given) | inactive: 2.06%
CCOc1cc(-c2nnc(SCC(=O)NC3CCCCC3)nc2-c2ccc(OC)c(OCC)c2)ccc1OC | inactive: -6.71%
CC(C)NC(=O)C1CCCN(c2ncnc3onc(-c4ccc(F)cc4)c23)C1 (stereo not given) | inactive: 11.6%
CCOc1ccccc1NC(=O)CCS(=O)(=O)c1ccc2c(c1)oc(=O)n2C | inactive: -18.5%
CCCn1c2ccccc2c2cnn(CC(=O)NCCN(CC)CC)c(=O)c21 | inactive: -0.237%
COc1ccc(-c2nc3ccccc3o2)cc1NC(=O)c1cccnc1 | inactive: 29.3%
COc1ccc(CCNC(=O)c2ccc3c(c2)N=C(C)c2ccccc2S3)cc1OC | inactive: 6.76%
Cc1cccc(NC(=O)CN(C)S(=O)(=O)c2ccc3c(c2)c(=O)n(C)c(=O)n3C)c1C | inactive: 6.62%
Cc1cc(Nc2cccc(C(=O)O)c2)n2nc(C)nc2n1 | inactive: -12.6%
CCCCOc1ccc(C(=O)Nc2cc(-c3cn4cccnc4n3)ccc2OC)cc1 | inactive: 4.54%
CCOc1c(Cl)cc(CNc2ccc3[nH]c(=O)[nH]c3c2)cc1OC | inactive: 1.75%
COc1ccc(NC(=O)NC(C)c2c(-n3cccc3)sc(C)c2C)cc1OC (stereo not given) | inactive: -4.75%
O=C(c1cc(-c2ccc(Cl)cc2)n[nH]1)N1CCN(S(=O)(=O)c2ccc(Br)s2)CC1 | inactive: -16.9%
Clc1ccccc1Cn1c(-c2cccs2)nc2ccccc21 | inactive: 1.66%
CCOc1ccc(NC(=O)c2sc(-n3nc(C)c(Cc4ccc(Cl)cc4)c3C)nc2C)cc1 | inactive: 14.5%
Cc1nnc(NC(=O)c2nc(SC(C)C)ncc2Cl)s1 | inactive: 2.24%
CCN(c1cccc(C)c1)S(=O)(=O)c1cc2c(cc1C)n(C)c(=O)c(=O)n2C | inactive: -4.63%
Cc1cccc(N(C)C(=O)CCS(=O)(=O)c2ccc3c(c2)n(C)c(=O)c(=O)n3C)c1 | inactive: 11.1%

SMILES | activity change, negative = cytotoxicity
CCc1cccc(NC(=O)c2ccc3c(c2)N(Cc2cccc(Cl)c2)C(=O)c2ccccc2S3=O)c1 (stereo not given) | inactive: -1.44%
CCOC(=O)c1c(-c2ccc(C)cc2)csc1NC(=O)c1cc(-c2ccc(OC)cc2)on1 | inactive: -11%
Cc1ccc(NC(=O)Cn2c(=O)n(Cc3ccc4c(c3)OCO4)c(=O)c3oc4ccccc4c32)cc1C | inactive: 10.5%
CC(C)c1ccc(NC(=O)Cn2nnc(C(=O)NCc3ccc4c(c3)OCO4)c2N)cc1 | inactive: -4.24%
CCOC(=O)C1CCN(Cc2cn3c(-c4ccc(OC)cc4)nnc3s2)CC1 | inactive: 4.83%
COc1cccc(NS(=O)(=O)c2ccc3[nH]cc(C(=O)NC(C)c4ccccc4)c(=O)c3c2)c1 (stereo not given) | inactive: -7.83%
Cc1ccccc1CN1CCCN(CC(=O)Nc2ccc(F)cc2)S1(=O)=O | inactive: -6.11%
Cc1ccc(/C=C/C(=O)Nc2ccc3nc(N4CCC(C)CC4)cc(C)c3c2)cc1 | inactive: 17.3%
Cc1cc(N2CCC(C(=O)Nc3ccc(F)cc3F)CC2)n2nc(C)c(-c3ccc(Cl)cc3)c2n1 | inactive: 6.15%
CCOc1ccc(C(=O)Nc2ccc3nc(N(CC)CC)cc(C)c3c2)cc1 | inactive: 13.1%
Cn1c(=O)oc2cc(S(=O)(=O)NC(Cc3ccccc3)C(=O)Nc3ccc(F)c(Cl)c3)ccc21 (stereo not given) | inactive: 2.06%
COc1cc(-c2cc(OC)c3c(C)oc(C)c3c(=O)c2)ccc1OC(=O)c1cccc(C)c1 | inactive: 0.43%
Cc1nn(S(=O)(=O)c2ccc(F)cc2)c(C)c1S(=O)(=O)N1CCCCCC1 | inactive: 1.45%
Cc1c(-c2ccccc2)c(=O)oc2c(CN3CCOCC3)c(O)ccc12 | inactive: -0.405%
Cc1ccc(C2C=C(c3ccccc3)Nc3nc(NS(C)(=O)=O)nn32)cc1 (stereo not given) | inactive: 1.59%
CCc1cccc(C)c1NC(=O)CSc1nc2ccncc2[nH]1 | inactive: -28.4%
COc1ccc(NC(=O)C2CCN(c3cc(C)nc4c(-c5ccc(Cl)cc5)c(C)nn34)CC2)cc1 | inactive: 3.53%
CCOc1ccc(C2C(C(=O)Nc3ccc(OC)cc3)=C(C)Nc3nc(CCCO)nn32)cc1 (stereo not given) | inactive: 2.21%
Cc1ccc(-c2noc(-c3ccc(N4CCCC4)c([N+](=O)[O-])c3)n2)cc1 | inactive: 4.98%
CCCc1cc(=O)[nH]c(SCc2nc(-c3ccc(OCC)cc3)no2)n1 | inactive: -2.63%
CCOC(=O)c1ccc(N2C(=O)c3n[nH]c(-c4ccco4)c3C2c2ccccc2OC)cc1 (stereo not given) | inactive: -0.53%
COc1ccc(N(C)S(=O)(=O)c2ccc3c(c2)CCN3C(=O)CCC(=O)O)cc1 | inactive: 3.74%
COc1ccc(NC(=O)c2ccco2)cc1NC(=O)c1ccccc1[N+](=O)[O-] | inactive: 18.2%
CCc1cccc(C)c1Nc1nn2c(=O)c3ccccc3nc2s1 | inactive: -4.24%

SMILES | activity change, negative = cytotoxicity
COc1cccc(NC(=O)Cn2c(=O)n(CCC(=O)NCc3ccccc3OC)c(=O)c3ccccc32)c1 | inactive: 2.73%
COc1ccc(Cl)cc1NC(=O)Cn1c(=O)n2nc(-c3ccccc3)nc2c2ccccc21 | inactive: 1.72%
COc1cc(C2C=C(C(=O)O)Nc3ncnn32)ccc1O (stereo not given) | inactive: 3.04%
CCOc1ccc2c(c1)c(=O)c(C(=O)c1ccc(CC)cc1)cn2CC(=O)Nc1ccc2c(c1)OCCO2 | inactive: 12%
COc1ccc(CNC(=O)c2nn(C)c3c2CSc2ccccc2-3)cc1 | inactive: -9.01%
COc1ccc(-c2csc(-c3c(N)c(C(=O)c4ccc(OC)c(OC)c4)n4ccccc34)n2)cc1 | inactive: -10.6%
COc1ccc(C)c2sc(N(Cc3cccnc3)C(=O)c3cccs3)nc12 | inactive: -25%
Cc1ccc(NC(=O)Cn2cc3c(n2)CCCC3)cc1Cl | inactive: -3.16%
CCN1CCc2c(sc(-n3cccc3)c2C(C)NC(=O)Nc2ccc(C(=O)OC)cc2)C1 (stereo not given) | inactive: -1.59%
Cc1cccc(N2CCN(C(=O)CCS(=O)(=O)c3ccc4c(c3)CC(=O)N4C)CC2C)c1 (stereo not given) | inactive: -1.94%
CC(=O)N1CCN(c2csc3ccc(Cl)cc3c2=O)CC1 | inactive: 1.15%
Cc1ccc(NS(=O)(=O)c2ccc3c(c2)n(C)c(=O)n3C)c(C)c1 | inactive: -2.61%
Cc1cccc(C(c2sc3nc(-c4ccco4)nn3c2O)N2CCOCC2)c1 (stereo not given) | inactive: 5.33%
CCCCOC(=O)c1ccc(NC(=O)c2ccc3c(c2)CCN3S(C)(=O)=O)cc1 | inactive: -3.91%
Clc1cccc(CNCCCSc2nnnn2-c2ccccc2)c1 | inactive: 5.47%
COC(=O)c1scc(-c2ccc(C)cc2)c1S(=O)(=O)Nc1cc(C)c(Cl)cc1OC | inactive: 2.97%
CCOC(=O)c1c(-c2ccccc2)oc2ccc(OCc3ccccc3Br)cc12 | inactive: -1.41%
CCOc1ccccc1NC(=O)Cn1c(=O)oc2ccccc21 | inactive: -9.33%
COc1ccc(NC(=O)Cn2cc(C(=O)c3ccc(C)c(C)c3)c(=O)c3cc(OC)ccc32)cc1 | inactive: -1.2%
O=C(NCCc1cccs1)c1ccc(Cn2c(SCc3cccc(F)c3)nc3cccnc32)cc1 | inactive: -30%
Cc1ccccc1S(=O)Cc1ccc(C(=O)NCc2ccccc2Cl)o1 (stereo not given) | inactive: 5.69%
O=C(Cn1cc(C(=O)c2ccco2)c2ccccc21)Nc1ccccc1C(F)(F)F | inactive: -12.8%
COc1ccc(-c2csc3ncnc(Nc4ccccc4)c23)cc1 | inactive: -21%
